Test results reported in paper PMC6919601, “Identification of Plasmodium dipeptidyl aminopeptidase allosteric inhibitors by high throughput screening” (PLoS ONE, 2019).
Screen size: about 110,000 compounds; about 230 (0.21%) showed an effect of 50% or more. The list shows a part of the results.

Biological target: DPAP1 (Plasmodium falciparum, UniProt Q8IIJ9)
Test: primary screen, percent inhibition; read by cleavage of a fluorogenic dipeptide substrate; higher = more effect of the substance
Design: species or system P. falciparum D10 trophozoite lysates; single well
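Also: 30 min substrate incubation versus DMSO and 10 µM JCP410 controls.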

DPAP1, sequence (Q8IIJ9 whole entry, looked up): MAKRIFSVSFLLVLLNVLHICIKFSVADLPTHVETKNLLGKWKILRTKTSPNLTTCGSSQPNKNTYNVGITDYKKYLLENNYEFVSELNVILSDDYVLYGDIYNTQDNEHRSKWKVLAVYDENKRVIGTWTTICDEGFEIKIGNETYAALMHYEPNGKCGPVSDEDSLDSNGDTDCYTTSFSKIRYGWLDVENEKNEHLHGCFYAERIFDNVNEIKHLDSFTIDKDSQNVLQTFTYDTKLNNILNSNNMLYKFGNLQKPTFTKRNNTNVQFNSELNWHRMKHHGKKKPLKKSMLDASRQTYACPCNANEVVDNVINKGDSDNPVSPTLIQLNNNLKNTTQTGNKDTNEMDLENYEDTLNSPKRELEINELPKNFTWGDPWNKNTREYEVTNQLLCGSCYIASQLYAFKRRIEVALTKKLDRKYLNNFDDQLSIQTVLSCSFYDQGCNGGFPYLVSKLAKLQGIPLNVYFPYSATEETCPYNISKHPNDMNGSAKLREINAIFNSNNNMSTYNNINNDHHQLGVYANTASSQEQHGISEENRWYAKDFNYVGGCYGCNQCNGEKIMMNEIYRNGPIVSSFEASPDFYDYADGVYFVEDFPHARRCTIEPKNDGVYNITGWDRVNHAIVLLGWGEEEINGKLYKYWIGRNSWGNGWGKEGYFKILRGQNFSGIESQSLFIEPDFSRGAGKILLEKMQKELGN

Compound	% Inhibition @ 10 uM [%]
O=C(O)c1ccc(-c2ccc(O)c(F)c2)cc1	0.0538
O=C(CN(Cc1ccccc1)S(=O)(=O)c1ccc(Br)cc1)N1CCCCCC1	5.12
Cc1[nH]c2ccccc2c1CN1CCCC(C(N)=O)C1 (stereo not shown)	3.68
COc1ccccc1CNC(=O)c1nn(C)c2c1CS(=O)(=O)c1ccccc1-2	1.79
O=C(NC1CCCCCC1)c1ccc2c(c1)OCO2	-4.41
COc1ccc(/C=C2\CCC(C3CCCC3)C2=O)cc1OC (stereo not shown)	4.06
CCOC(=O)COc1ccccc1C(C)=O	3.42
N#Cc1ccccc1N1C(=O)C2C3C=CC(C3)C2C1=O (stereo not shown)	4.3
CC(=O)c1cc2cc(Br)ccc2oc1=O	-0.546
O=C1OC2(CCCC2)OC(=O)C1=Cc1ccc(Br)cc1	-5.28
O=[N+]([O-])c1ccc(O)c(CN2CCCCCC2)c1	-1.78
CCOC(=O)NS(=O)(=O)c1cnccc1Sc1cccc(C)c1	5.17
C=CCc1cc(/C=C2/NC(=O)N(CC(=O)Nc3cccc(C)c3)C2=O)cc(OC)c1O	29.4
Cn1ncc(Cl)c1C(=O)N1CCc2ccccc21	-3.19
CC1CCC(N2CCC(C(N)=O)CC2)CC1 (stereo not shown)	-4.75
COc1cc(C2CC(=O)Nc3ccc4ccccc4c32)ccc1OCC(=O)Nc1ccccc1 (stereo not shown)	-0.522
O=C(NC1(C(F)(F)F)Oc2cc(Cl)c(Cl)cc2O1)N1CCCC1	3.51
CCCCn1c(C)c(C(C)=O)c2cc(OC)ccc21	0.35
Cc1ccc(S(=O)(=O)c2nnn3c2nc(N2CCC(C)CC2)c2sccc23)cc1C	-5.57
O=C(NCc1cccs1)C1CCN(S(=O)(=O)c2ccc3nc(O)ccc3c2)CC1	5.39
Cn1cccc1CNCc1cccnc1	-1.72
CC(C)C[C@H](NC(=O)N1CCN(c2ccccc2F)CC1)C(=O)NCC#N	-0.207
CCC(C#CCN1CCOCC1)OC(C)=O (stereo not shown)	5.32

Compound	% Inhibition @ 10 uM [%]
CCNC(=S)N1CCn2cccc2C1c1cccs1 (stereo not shown)	-0.0419
CC(C)CC(=O)Nc1sc2c(c1C#N)CCCCC2	2.01
CCOC1CC(C)(C)Oc2ccc3oc(C(=O)NCCN4CCCCCC4)c(C)c3c21 (stereo not shown)	-11
Cc1c(C(=O)NCC2CCCO2)oc2c1-c1nn(Cc3ccc(Cl)cc3)cc1CC2 (stereo not shown)	7.38
Cc1n[nH]c(C)c1Nc1cnn(C23CC4CC(CC(CC(=O)O)(C4)C2)C3)c(=O)c1Cl	-5.27
C=CCOc1c(Br)cc(CNC(C)(C)C)cc1OC	3.8
Cc1nn(CCC(=O)NCCC2=CCCCC2)c(=O)c2nn(-c3ccccc3)c(C)c12	-8.76
O=C1c2ccccc2C(O)N1CCN1CCOCC1 (stereo not shown)	-4.69
COc1ccc(C)cc1N(CC(=O)N1CCOCC1)S(C)(=O)=O	-1.07
CCc1ccc(-c2ncnn2-c2ccc(Cl)cc2)cc1	3.05
CN(C)c1ccc(C2C(C(=O)c3ccccc3)=C(O)C(=O)N2c2ccccc2)cc1 (stereo not shown)	0.35
CC(C)CCNC(=O)c1cnn(-c2cccc(F)c2)c1-n1cccc1	-4.55
CC1(C)CC(O)=C(C(=S)Nc2ccccc2)/C(=N/CCc2ccccc2)C1	-7.3
Brc1ccccc1OCCCN1CCOCC1	3
CCOc1ccccc1N1CCN(C2CCN(C)CC2)CC1	3.68
CC(C)n1cc2c(c1-c1ccccc1)c(=O)n(C)c(=O)n2C	-4.26
CCN1CCN(c2nc3c(c(=O)n(C)c(=O)n3C)n2C(C)C)CC1	0.627
OCCN1CCN(c2nc(NCC3CCCO3)c3ccccc3n2)CC1 (stereo not shown)	-6.39
CS(=O)(=O)c1nc(S(=O)(=O)c2ccc(Cl)cc2)c(N2CCN(CCO)CC2)s1	-0.522
Cc1cccc2c1cnn2C(=O)CCC(=O)NC1CCCc2ccccc21 (stereo not shown)	4.84
CC(C)CC(C(=O)NCC#N)c1cccc(-c2cccc(Br)n2)c1 (stereo not shown)	4.63
CCC1CCC(N2CC(C)OC(C)C2)CC1 (stereo not shown)	0.273
CCC(C(=O)NCc1ccc(OC(C)C)cc1)n1nc(C)c2sc3ccccc3c2c1=O (stereo not shown)	2.8

Compound	% Inhibition @ 10 uM [%]
O=C(NC1CCCCC1)C1CCC(CNS(=O)(=O)c2cccc3nsnc23)CC1 (stereo not shown)	2.93
O=C1C2CC=CCC2C(=O)N1c1ccc(Br)cc1 (stereo not shown)	3.53
CC1CC(C)CN(CCCNC(=O)c2ccc3c(c2)ncn3C2CCCC2)C1 (stereo not shown)	3.66
CCC1(C(=O)c2ccc(Cl)cc2)C2c3cc(Br)ccc3OC(=O)C21C(C)=O (stereo not shown)	-0.703
CCOC(=O)c1c(NC(=O)c2ccc(N)c([N+](=O)[O-])c2)sc2c1CCCC2	-1.97
CCOc1ccc(CNc2ccc(OCC)cc2)cc1	-10.7
COc1ccc(CNC(=O)CNS(=O)(=O)c2ccc(OC)cc2)cc1	5.43
CC(C)CN(CC(C)C)c1nnc(NC(=O)NC2CCCC2)s1	5.42
COc1cccc(NC(=O)CCC(=O)Nc2cccc(OC)c2)c1	-3.41
C=CCNc1oc(/C=C/c2ccc(OCC)cc2)nc1C#N	4.83
COc1ccc(C2=CC(c3ccccc3OC(F)F)n3ncnc3N2)cc1 (stereo not shown)	0.0842
COc1cc(C(=O)Nc2sc3c(c2C(N)=O)CCCCC3)cc(OC)c1OC	7
COc1ccc(NC(=O)OCC23COCN2COC3)cc1	-2.67
CC1=CC(C)(C)N(Cc2ccc(CN3c4cc(C)ccc4C(C)=CC3(C)C)cc2)c2cc(C)ccc21	2.6
N#Cc1cc2c(N)c(C(=O)Nc3ccc(F)cc3Cl)sc2nc1N	1.52
CC(=O)OC(C#CCN1CCCCC1)c1ccccc1 (stereo not shown)	-2.32
CN1CCN(CCC(=O)Nc2ccc(C3CCCC3)cc2)CC1	1.19
Nc1ccc(-c2nc3ccc(N)cc3o2)cc1	1.42
Nc1c(-c2nc(-c3ccccc3F)no2)nnn1-c1ccccc1C(F)(F)F	-2.15
Clc1cccc(-c2nnc3sc(CCc4ccccc4)nn23)c1	4.28
CC(C)OCCCn1c(=O)c2ccccc2n2c(CCC(=O)NCc3ccc(F)cc3)nnc12	0.277
